Test results taken from PubChem BioAssay AID504333 (National Center for Advancing Translational Sciences (NCATS), 2011).
The whole screen tested about 360,000 compounds, of which about 16,000 (4.4%) were called active. The shares of active, inactive and inconclusive entries below differ from those in the screen. Calls come from the whole dose curve; as a rule, active = well fitted inhibition curve with a large enough effect; inconclusive = small, poorly fitted or top-dose-only effect; inactive = no such curve, though single readings can be large or run the other way. A potency beside an inconclusive call is a rough fit, not a confirmed value.

Each compound was assayed against Bromodomain adjacent to zinc finger domain protein 2B (Homo sapiens) (UniProt Q9UIF8) (assay: qHTS Assay for Inhibitors of BAZ2B). Conditions: AlphaScreen BAZ2B-H3K14Ac peptide displacement; activity change, negative = inhibition: at 114 µM (top of the series) unless noted.
Sequence of UniProt Q9UIF8 (Q9UIF8 whole entry, looked up, the tested form may be a part): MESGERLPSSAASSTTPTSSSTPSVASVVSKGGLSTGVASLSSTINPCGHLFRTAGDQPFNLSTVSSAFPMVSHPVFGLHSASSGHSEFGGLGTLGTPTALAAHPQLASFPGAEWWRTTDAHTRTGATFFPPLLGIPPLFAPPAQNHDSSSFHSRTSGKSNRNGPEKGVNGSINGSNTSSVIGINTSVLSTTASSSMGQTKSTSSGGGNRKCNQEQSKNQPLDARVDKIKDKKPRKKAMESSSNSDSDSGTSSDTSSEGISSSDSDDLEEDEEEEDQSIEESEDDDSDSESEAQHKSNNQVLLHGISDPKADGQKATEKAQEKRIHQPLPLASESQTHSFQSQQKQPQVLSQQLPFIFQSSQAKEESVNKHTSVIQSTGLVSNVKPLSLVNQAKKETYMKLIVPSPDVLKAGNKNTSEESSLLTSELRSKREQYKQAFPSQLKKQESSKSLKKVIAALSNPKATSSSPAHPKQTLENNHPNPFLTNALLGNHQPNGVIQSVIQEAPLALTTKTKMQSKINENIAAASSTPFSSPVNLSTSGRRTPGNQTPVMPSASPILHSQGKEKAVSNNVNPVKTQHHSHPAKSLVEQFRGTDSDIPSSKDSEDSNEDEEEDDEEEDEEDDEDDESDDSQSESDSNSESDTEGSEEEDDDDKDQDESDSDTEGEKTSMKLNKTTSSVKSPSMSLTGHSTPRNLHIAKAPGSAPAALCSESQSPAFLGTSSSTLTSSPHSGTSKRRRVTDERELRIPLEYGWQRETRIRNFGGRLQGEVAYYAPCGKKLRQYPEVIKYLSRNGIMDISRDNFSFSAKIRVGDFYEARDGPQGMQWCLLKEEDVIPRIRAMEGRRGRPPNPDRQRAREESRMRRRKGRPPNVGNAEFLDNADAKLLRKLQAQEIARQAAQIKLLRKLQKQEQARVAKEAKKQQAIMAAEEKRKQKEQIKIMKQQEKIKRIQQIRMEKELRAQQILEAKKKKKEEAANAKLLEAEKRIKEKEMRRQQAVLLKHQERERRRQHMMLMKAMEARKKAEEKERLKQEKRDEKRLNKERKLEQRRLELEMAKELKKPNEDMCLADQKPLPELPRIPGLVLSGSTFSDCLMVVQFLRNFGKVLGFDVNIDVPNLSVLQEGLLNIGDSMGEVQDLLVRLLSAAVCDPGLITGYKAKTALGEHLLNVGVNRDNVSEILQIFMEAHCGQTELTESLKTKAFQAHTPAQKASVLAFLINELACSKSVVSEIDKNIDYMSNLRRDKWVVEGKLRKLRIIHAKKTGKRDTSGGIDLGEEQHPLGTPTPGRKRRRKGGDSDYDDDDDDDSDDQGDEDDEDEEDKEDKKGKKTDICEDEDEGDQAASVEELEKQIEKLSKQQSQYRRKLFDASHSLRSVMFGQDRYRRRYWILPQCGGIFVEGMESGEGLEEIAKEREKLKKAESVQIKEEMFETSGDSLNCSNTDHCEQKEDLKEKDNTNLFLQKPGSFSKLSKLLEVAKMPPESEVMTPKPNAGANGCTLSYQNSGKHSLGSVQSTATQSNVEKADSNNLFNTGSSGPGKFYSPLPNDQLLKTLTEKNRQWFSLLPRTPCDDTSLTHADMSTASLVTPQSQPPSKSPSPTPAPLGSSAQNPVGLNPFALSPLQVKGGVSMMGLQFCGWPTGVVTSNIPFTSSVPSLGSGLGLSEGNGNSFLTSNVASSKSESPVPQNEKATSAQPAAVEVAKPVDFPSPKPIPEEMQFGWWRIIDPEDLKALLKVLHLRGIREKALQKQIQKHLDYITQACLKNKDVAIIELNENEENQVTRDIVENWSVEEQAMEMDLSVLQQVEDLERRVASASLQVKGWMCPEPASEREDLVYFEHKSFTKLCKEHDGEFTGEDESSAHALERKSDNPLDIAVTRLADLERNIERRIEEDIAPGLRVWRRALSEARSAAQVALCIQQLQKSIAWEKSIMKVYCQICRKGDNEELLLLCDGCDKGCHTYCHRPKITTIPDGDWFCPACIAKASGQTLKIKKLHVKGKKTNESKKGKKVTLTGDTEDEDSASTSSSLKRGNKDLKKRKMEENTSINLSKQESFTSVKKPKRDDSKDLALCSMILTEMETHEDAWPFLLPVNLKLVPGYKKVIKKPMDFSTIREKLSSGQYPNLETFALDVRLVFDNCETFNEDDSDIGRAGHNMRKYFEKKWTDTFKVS
Procedure, shortened: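 Compounds, titrated to a top concentration of 110 uM, were incubated 30 min at room temperature with preformed BAZ2B/acetyl-K14 H3 peptide complex (50 nM each). Proximity signal was measured by AlphaScreen after 20 min with beads.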
% is set by controls: 0 for no effect and ±100 for the full control effect; potency is the fitted concentration of half-maximal effect; tags give direction and shape of the fitted curve.
Note: nearly all actives have a fitted effect of over 60% in size.

Q: How did the “activity change, negative = inhibition” value turn out when `COc1cc(SC)ccc1C(=O)NCCOc1ccc(Cl)cc1` was run?
A: inactive: 14.6%

Q: For `COc1ccc(OCC2c3cc(OC)c(OC)cc3CCN2C(=O)c2ccc(F)cc2)cc1` (configuration not stated), which Potency is on record?
A: inconclusive: 28.2 µM [inhibitor, partial curve]

Q: Which Potency does the source give for `CCOC(=O)[C@H]1[C@H]2COc3ccc(Br)cc3[C@@H]2N2C(=O)CN(Cc3ccco3)C(=O)[C@@]12C` here?
A: active: 50.1 µM

Q: How did the Potency turn out when `CC(=O)c1ccc(NC(=O)C(C)OC(=O)CCCN=C2NS(=O)(=O)c3ccccc32)cc1` (configuration not stated) was run?
A: inconclusive: 89.1 µM [inhibitor, single point]

Q: With `OCCN(Cc1ccccc1)Cc1cccc(Cl)c1Cl` as the compound, how does the Potency read?
A: active: 50.1 µM

Q: For `COc1ccc(C2=NO[C@@H]3C(=O)N(c4ccc(C)cc4C)C(=O)[C@H]23)cc1OC`, which “activity change, negative = inhibition” value is on record?
A: inactive: -2.57%

Q: With `C=CCOc1ccccc1CN1CCCCCC1` as the compound, how does the Potency read?
A: inconclusive: 89.1 µM [inhibitor, single point]

Q: How did the Potency turn out when `CCOc1ccc(NC(=O)N2CC=C(c3c[nH]c4ccccc34)CC2)cc1` was run?
A: inconclusive: 50.1 µM [inhibitor, partial curve]

Q: For `CCN1CCN(c2ncnc3sc(C)c(-c4ccccc4)c23)CC1`, which “activity change, negative = inhibition” value is on record?
A: inactive: 0.721%

Q: `COc1ccc(-n2c(=O)c3c4c(sc3n(Cc3ccccc3)c2=O)CN(C(C)=O)CC4)cc1OC` was tested. Which “activity change, negative = inhibition” value did it give?
A: inactive: -0.445%

Q: `CCOC(=O)N1CCc2c(sc3nc[nH]c(=O)c23)C1` was tested. Which “activity change, negative = inhibition” value did it give?
A: inactive: -2.6%

Q: For `O=C(COC(=O)CNS(=O)(=O)/C=C/c1ccccc1)NC1CCS(=O)(=O)C1` (configuration not stated), which Potency is on record?
A: inconclusive: 89.1 µM [inhibitor, single point]

Q: How did the Potency turn out when `CCCC(c1nnnn1C1CCCCC1)N1CCN(c2ncccn2)CC1` (configuration not stated) was run?
A: inconclusive: 89.1 µM [inhibitor, single point]

Q: Which Potency does the source give for `COc1cc(OC)cc(C(=O)NNc2nc3cc4c(cc3s2)OCO4)c1` here?
A: inconclusive: 25.1 µM [inhibitor, partial curve]

Q: `COc1ccc(C(=O)NCCc2c[nH]c3ccc(OC)cc23)cc1` was tested. Which Potency did it give?
A: inconclusive: 79.4 µM [inhibitor, single point]

Q: `CCOc1ccccc1NCc1nnc(-c2ccccc2)o1` was tested. Which Potency did it give?
A: inconclusive: 79.4 µM [inhibitor, partial curve]

Q: With `COc1cc(/C=C(\C#N)c2nc3ccc(C)cc3[nH]2)c([N+](=O)[O-])cc1OC` as the compound, how does the “activity change, negative = inhibition” value read?
A: inactive: -12.8%

Q: `COc1cccc2c1Oc1ncccc1N(C(=O)CCC(=O)NCc1ccc(N(C)C)cc1)C2` was tested. Which “activity change, negative = inhibition” value did it give?
A: inactive: -0.44% [at 57.1 µM]

Q: For `COc1cc(C)c(CNc2ccc(OC)c(OC)c2)cc1C`, which Potency is on record?
A: active: 44.7 µM

Q: For `COc1ccccc1Nc1nc(-c2sc(NC(=O)c3ccco3)nc2C)cs1`, which “activity change, negative = inhibition” value is on record?
A: inactive: -32.9%

Q: With `CCN(CC)CCNC(=O)/C(=N\O)c1ccccn1` as the compound, how does the Potency read?
A: inconclusive: 79.4 µM [inhibitor, single point]

Q: Which Potency does the source give for `C=C(CO)C1Cc2cc(C(C)=O)ccc2O1` (configuration not stated) here?
A: active: 79.4 µM

Q: How did the Potency turn out when `C=CC[C@@H]1C=C[C@H](O/N=C/c2ccc(C(=O)N3[C@H](c4ccc(C)cc4)[C@@H](C)CC[C@H]3C(=O)OC)cc2)[C@@H](CO)O1` was run?
A: inconclusive: 79.4 µM [inhibitor, single point]

Q: How did the Potency turn out when `COCCCN(C(=O)c1cc(-c2ccco2)nc2ccccc12)c1c(N)n(Cc2ccccc2)c(=O)[nH]c1=O` was run?
A: inconclusive: 89.1 µM [inhibitor, single point]

Q: `CCCOc1cccc(C(=O)N/N=C/c2ccoc2)c1` was tested. Which Potency did it give?
A: inconclusive: 79.4 µM [inhibitor, single point]

Q: For `CCCc1c(C)nn(C(=O)/C(C#N)=N/Nc2ccccc2[N+](=O)[O-])c1C`, which Potency is on record?
A: inconclusive: 79.4 µM [inhibitor, single point]

Q: Which Potency does the source give for `O=C(c1cccc(S(=O)(=O)N2CCOCC2)c1)N(CCO)Cc1ccccc1` here?
A: inconclusive: 100 µM [inhibitor, single point]

Q: `O=C(c1cnccn1)N1CCc2ccccc21` was tested. Which activity change, negative = inhibition did it give?
A: inconclusive: -42.5% [inhibitor]

Q: For `Cc1cccc(N2CCN(C(=O)c3ccc4c(c3)CCN4S(C)(=O)=O)CC2)c1C`, which Potency is on record?
A: inconclusive: 89.1 µM [inhibitor, single point]

Q: `CCn1c(C)cc(C(=O)CSc2nnnn2C2CCCC2)c1C` was tested. Which Potency did it give?
A: inconclusive: 89.1 µM [inhibitor, single point]

Q: How did the Potency turn out when `C=CCc1cccc(OC)c1OCCOCCn1ccnc1` was run?
A: active: 35.5 µM

Q: Which Potency does the source give for `Cc1cccc(OCc2n[nH]c(=S)n2-c2ccccc2)c1` here?
A: inconclusive: 79.4 µM [inhibitor, single point]

Q: For `COc1cc(OC)c(NC(=O)CCCn2nc(C)c3sc4ccccc4c3c2=O)cc1Cl`, which Potency is on record?
A: inconclusive: 35.5 µM [inhibitor, partial curve]

Q: `C/C(=N\NC(=O)c1ccc(N(C)C)cc1)c1ccc(C)cc1C` was tested. Which Potency did it give?
A: inconclusive: 70.8 µM [inhibitor, single point]

Q: How did the Potency turn out when `CSc1nc(C(=O)N2CCc3c([nH]c4ccccc34)C2c2ccccn2)cs1` (configuration not stated) was run?
A: active: 31.6 µM

Q: With `Cc1ccc(S(=O)(=O)Cc2ccc(C(=O)N3CCN(c4ccc(F)cc4)CC3)o2)cc1` as the compound, how does the Potency read?
A: inconclusive: 89.1 µM [inhibitor, single point]

Q: Which “activity change, negative = inhibition” value does the source give for `Cn1ccc(-c2ccccc2)n1` here?
A: inactive: 0.947%

Q: How did the Potency turn out when `COC(=O)[C@]1(Cc2ccccc2)N[C@H](c2ccc(-c3cccc(Cl)c3)cc2)[C@@H]2C(=O)N(C)C(=O)[C@@H]21` was run?
A: inconclusive: 89.1 µM [inhibitor, single point]

Q: Which Potency does the source give for `O=C(OCCN1CCCC1)C1(c2ccccc2)CCCC1` here?
A: inconclusive: 79.4 µM [inhibitor, single point]

Q: Which Potency does the source give for `COc1ccc(N2CCN(C(c3ccccc3)c3sc4nc(C)nn4c3O)CC2)cc1` (configuration not stated) here?
A: inconclusive: 50.1 µM [inhibitor, partial curve]

Q: How did the “activity change, negative = inhibition” value turn out when `O=C(O)c1nc(-c2ccccc2)n(-c2ccccc2)n1` was run?
A: inactive: -0.0161%

Q: Which “activity change, negative = inhibition” value does the source give for `O=C(COC(=O)c1ccco1)Nc1ccc(N2CCOCC2)cc1` here?
A: inactive: 17.3%

Q: Which Potency does the source give for `CN(C)c1ccc(N=C/C=C2\N(C)c3ccccc3C2(C)C)cc1` here?
A: active: 35.5 µM

Q: `O=C(CSc1nnc(-c2ccc(F)cc2)c2ccccc12)NCC1CCCO1` (configuration not stated) was tested. Which Potency did it give?
A: inconclusive: 56.2 µM [inhibitor, partial curve]

Q: `C=CCn1c(CNc2ccccc2)nnc1SCC(=O)N/N=C/c1ccc(O)cc1O` was tested. Which Potency did it give?
A: inconclusive: 35.5 µM [inhibitor, single point]

Q: Which “activity change, negative = inhibition” value does the source give for `CCc1ccc(NC(=O)c2cc(S(=O)(=O)N3CCCCCC3)ccc2F)cc1` here?
A: inactive: 6.8%

Q: Which “activity change, negative = inhibition” value does the source give for `Cc1[nH]nc2c1C(c1ccc(Cl)cc1)C(C#N)=C(N)O2` (configuration not stated) here?
A: inactive: -4.08%

Q: How did the Potency turn out when `Cc1cc2ccccn2c1C(=O)c1nc(N2CCOCC2)ncc1Cl` was run?
A: inconclusive: 39.8 µM [inhibitor, partial curve]

Q: `Cc1nc(CCN2C(=O)c3ccccc3C2=O)cs1` was tested. Which “activity change, negative = inhibition” value did it give?
A: inactive: -4.41%

Q: With `COc1ccccc1NC(=O)C(=O)c1cc(C)n(-c2ccccc2F)c1C` as the compound, how does the Potency read?
A: inconclusive: 31.6 µM [inhibitor, partial curve, poor fit]

Q: How did the Potency turn out when `Cc1ccc(/C=C/C(=O)N2CCN(S(=O)(=O)c3c(C)c(C)cc(C)c3C)CC2)o1` was run?
A: inconclusive: 44.7 µM [inhibitor, partial curve]

Q: For `Clc1cccc(/C=N/N2CCN(Cc3ccccc3)CC2)c1`, which Potency is on record?
A: active: 39.8 µM

Q: `Cc1ccc(C)c(S(=O)(=O)Nc2nc3ccc(S(N)(=O)=O)cc3s2)c1` was tested. Which “activity change, negative = inhibition” value did it give?
A: inactive: 7.92%

Q: How did the “activity change, negative = inhibition” value turn out when `Cc1nc(N2CCCC2)c2c(C(=O)Nc3cccc(Cl)c3C)c(C)oc2n1` was run?
A: inactive: -6.34% [at 57.1 µM]

Q: `Cc1ccc(NC(=O)CCN2C(=O)c3cccc4cccc(c34)C2=O)cc1` was tested. Which Potency did it give?
A: inconclusive: 89.1 µM [inhibitor, single point]

Q: `O=[N+]([O-])c1cc(/C=N/N2CCN(Cc3ccccc3)CC2)ccc1Cl` was tested. Which Potency did it give?
A: active: 11.2 µM

Q: For `O=C(Cn1cccn1)N1CCCC(Nc2ccc(F)c(F)c2)C1` (configuration not stated), which “activity change, negative = inhibition” value is on record?
A: inactive: -13.7%

Q: How did the “activity change, negative = inhibition” value turn out when `OCCNc1nc(N2CCN(Cc3ccccc3)CC2)nc2ccccc12` was run?
A: inactive: -8.15%

Q: For `COc1ccc(N2CCN(Cc3nc4scc(-c5ccccc5)c4c(=O)[nH]3)CC2)cc1`, which Potency is on record?
A: inconclusive: 10 µM [inhibitor, full curve, poor fit]

Q: Which “activity change, negative = inhibition” value does the source give for `COc1ccc(Cl)cc1NC(=O)CN(C)C(=O)c1sccc1-c1ccccc1` here?
A: inactive: -5.35%

Q: For `CCc1ccc(/C=N/NC(=O)c2nnn(-c3nonc3N)c2CN2CCOCC2)cc1`, which Potency is on record?
A: inconclusive: 79.4 µM [inhibitor, single point]

Q: Which “activity change, negative = inhibition” value does the source give for `Cc1ccc(NC(=O)Nc2cccc(F)c2)nc1` here?
A: inactive: 3.01%

Q: How did the Potency turn out when `Cc1cccc(OCC(=O)NC(=S)N2CCCc3ccccc32)c1` was run?
A: active: 44.7 µM

Q: How did the Potency turn out when `CCOc1cc(CNCc2cccnc2)ccc1OCC(=O)NC(C)(C)C` was run?
A: inconclusive: 79.4 µM [inhibitor, single point]

Q: For `CN(C)c1cccc2c1C(=O)c1ccccc1C2=O`, which Potency is on record?
A: active: 8.91 µM

Q: `Cc1ccc2c(C)c(C(=O)N3CCN(c4cnccn4)CC3)oc2c1C` was tested. Which Potency did it give?
A: inconclusive: 44.7 µM [inhibitor, partial curve]

Q: `CCOC(=O)c1sc(NC(=O)CSc2nnc(-c3ccco3)n2CC)c(C(=O)OCC)c1C` was tested. Which Potency did it give?
A: inconclusive: 39.8 µM [inhibitor, full curve, poor fit]

Q: How did the Potency turn out when `CC(c1nnc(SCC(=O)N2CCc3ccccc32)n1-c1ccc(Cl)cc1)N(C)C` (configuration not stated) was run?
A: inconclusive: 89.1 µM [inhibitor, single point]

Q: How did the Potency turn out when `COc1ccc(N2CCN(C(=O)c3cn(CC4CCCCC4)nn3)CC2)cc1` was run?
A: inconclusive: 44.7 µM [inhibitor, partial curve]

Q: How did the Potency turn out when `C#CCOCCOCCOCCNc1nc(N2CCN(C(=O)CCCCCCCCCCNC(=O)[C@H]([C@@H](C)CC)n3cc(CCCCN=C(N)N)nn3)CC2)nc(N2CCN(C(=O)CCCCCCCCCCNC(=O)[C@H](CCCCN)n3cc(C)nn3)CC2)n1` was run?
A: active: 50.1 µM

Q: How did the “activity change, negative = inhibition” value turn out when `CC(NC(=O)c1c(O)c2ccccc2[nH]c1=O)c1ccccc1` (configuration not stated) was run?
A: inactive: -9.6%

Q: With `CCOC(=O)/C(C#N)=N/Nc1ccc(S(=O)(=O)N2CCc3ccccc32)cc1` as the compound, how does the Potency read?
A: inconclusive: 44.7 µM [inhibitor, partial curve]
